Measured values published in PubChem BioAssay AID1347120 (National Center for Advancing Translational Sciences (NCATS), 2019).
About 930 (0.24%) of roughly 390,000 compounds were called active. The inconclusive results got no clear call from the source; some entries with a clear call stand among them for comparison. Calls follow the shape of the dose curve; as a rule, active = well fitted activation curve with a large enough effect; inconclusive = small, poorly fitted or top-dose-only effect; inactive = no such curve, though single readings can be large or run the other way. Where the call is inconclusive, the potency comes from a doubtful curve fit. Numbered stars: 1 amine (or outer) side, 2 acyl side, 3 side chain; on linkers, the order of the positions; unused ones are H or OH. Bridge positions count the residues as written; N and C are the ends. Square brackets hold non-standard residues; d marks the D form. Peptide text beside a SMILES is read from it. ξ: configuration not given here. hSer(Ph(2-I,4-NO2,6-CO)) = O=C([C@H](CCOc1c(I)cc([N+](=O)[O-])cc1C(=O)[*:3])N[*:1])[*:2]; ξD = NC(CC(=O)O)C(=O)O

Test: qHTS for Suppressors of FUS Proteinopathy: Primary screen using FUS-linked yeast assay; also: nearly all actives have a fitted effect of over 55% in size;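 as to growth rescue (activation): plate controls were DMSO vehicle for no effect and reference control for full effect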
Settings: S. cerevisiae FUS-expressing, OD600, 24 h; Potency: growth rescue; growth rescue (activation): at 76.6 µM (top of the series)
Method in brief: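 Cultures pregrown in 2.5% raffinose medium are shifted to minimal medium containing 2% galactose to express toxic FUS. Compounds are tested at several concentrations. After 24hr at 30C, growth is quantified at 600 nm absorbance.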
Potency is read from the fitted curve at half-maximal effect; tags tell the direction and shape of the fitted curve.

Question: Which “growth rescue (activation)” value does the source give for `S=c1[nH]nc(C2CCCCC2)n1/N=C/c1ccccc1` here?
Answer: inactive: -8.46%

Question: With `COC(=O)N[C@H](C(=O)N[C@@H](Cc1ccccc1)[C@@H](O)CN(Cc1ccc(-c2ccccn2)cc1)NC(=O)[C@@H](NC(=O)OC)C(C)(C)C)C(C)(C)C` as the compound, how does the Potency read?
Answer: inconclusive: 25.1 µM [activator, partial curve]

Question: Which Potency does the source give for `Cn1c(SCc2ccc(C(C)(C)C)cc2)nnc1C1COc2ccccc2O1` (stereo not drawn) here?
Answer: inconclusive: 50.1 µM [activator, partial curve, poor fit]

Question: Which Potency does the source give for `COc1ccc(NCc2nnc(SCC(=O)N3CCCc4ccccc43)o2)cc1` here?
Answer: inconclusive: 50.1 µM [activator, single point]

Question: With `CN1C(=O)c2cc(NC(=O)Nc3ccccc3)ccc2OC[C@H]2O[C@@H](CC(=O)NCc3ccc(-c4ccccc4)cc3)CC[C@@H]21` as the compound, how does the Potency read?
Answer: inconclusive: 14.1 µM [activator, partial curve]

Question: For `CC(C)n1c(SCC(=O)Nc2nc3ccccc3s2)nc2c1c(=O)n(C)c(=O)n2C`, which “growth rescue (activation)” value is on record?
Answer: inactive: -1.28%

Question: With `COC(=O)c1cc(C(=O)N2CCN(c3cccc(C)c3C)CC2)cc([N+](=O)[O-])c1` as the compound, how does the Potency read?
Answer: inconclusive: 50.1 µM [activator, single point]

Question: With `Cc1cc2cc(CNC(=O)c3ccc(S(=O)(=O)N(C)C)cc3)ccc2n1C` as the compound, how does the Potency read?
Answer: inconclusive: 28.2 µM [activator, single point]

Question: For `O=S(=O)(Nc1cccc(-c2ccc(N3CCCCC3)nn2)c1)c1ccc(Cl)s1`, which Potency is on record?
Answer: inconclusive: 50.1 µM [activator, single point]

Question: With `Cc1cc(C)c(C#N)c(Sc2nnnn2-c2ccccc2)n1` as the compound, how does the “growth rescue (activation)” value read?
Answer: inactive: -25.9%

Question: For `CCOc1ccc(CCNC(=O)c2ccc3nc(CC)c(CC)nc3c2)cc1`, which Potency is on record?
Answer: inconclusive: 28.2 µM [activator, single point]

Question: With `COc1ccc(N2CC(C(=O)Nc3nnc(SCc4ccccn4)s3)CC2=O)cc1` (stereo not drawn) as the compound, how does the Potency read?
Answer: inconclusive: 31.6 µM [activator, single point]

Question: With `Cc1cccc(C)c1NC(=S)NCCSc1ccc(Cl)cc1` as the compound, how does the “growth rescue (activation)” value read?
Answer: inactive: 31.9%

Question: With `CC1CCN(C(=O)Cn2ncc3c4ccccc4n(Cc4ccc(Cl)cc4)c3c2=O)CC1` as the compound, how does the “growth rescue (activation)” value read?
Answer: inactive: -13.9%

Question: With `COc1ccc(NC(=O)N[C@@H](Cc2ccccc2)C(=O)NN)cc1` as the compound, how does the Potency read?
Answer: inconclusive: 50.1 µM [activator, single point]

Question: Which Potency does the source give for `CCC(c1nnnn1Cc1ccco1)N(CCc1ccccc1)Cc1cc2ccc(OC)cc2[nH]c1=O` (stereo not drawn) here?
Answer: inconclusive: 31.6 µM [activator, partial curve, poor fit]

Question: For `CC(C)Cn1c(CCC(=O)O)ccc1-c1cccs1`, which Potency is on record?
Answer: inconclusive: 8.91 µM [activator, partial curve, poor fit]

Question: For `C[C@H]1CCC[C@@H](O)CC(=O)c2c(O)cc(O)cc2CC(=O)O1`, which “growth rescue (activation)” value is on record?
Answer: inactive: -15.8%

Question: With `Nc1cc(N2CCCC2)c(Cl)cc1[N+](=O)[O-]` as the compound, how does the “growth rescue (activation)” value read?
Answer: inactive: 11.8%

Question: For `CSc1nn(Cc2ccc(Br)cc2)c(N(C(C)=O)C(C)=O)c1S(=O)(=O)c1ccccc1`, which “growth rescue (activation)” value is on record?
Answer: inactive: 31.3%

Question: Which Potency does the source give for `CCOC(=O)CSC1=C(C#N)C(c2ccccc2)C(C(C)=O)=C(C)N1` (stereo not drawn) here?
Answer: inconclusive: 14.1 µM [activator, partial curve]

Question: For `Cc1cc(C)n(Cc2ccc(C(=O)O)o2)n1`, which “growth rescue (activation)” value is on record?
Answer: inactive: -21.9%

Question: With `O=C1c2ccccc2NC(c2ccccc2)N1Cc1ccccc1` (stereo not drawn) as the compound, how does the “growth rescue (activation)” value read?
Answer: inactive: 0.757%

Question: Which Potency does the source give for `CS(=O)(=O)c1sc2nc(-c3ccccc3)cc(-c3ccccc3)c2c1N` here?
Answer: inconclusive: 10 µM [activator, full curve]

Question: With `O=C(NC1CC(=O)N(c2ccc(Cl)cc2)C1)c1ccc(S(=O)(=O)N2CCCC2)cc1` (stereo not drawn) as the compound, how does the “growth rescue (activation)” value read?
Answer: inactive: 13.5%

Question: With `CNC(=O)c1cc(C)c(-c2ccccc2)s1` as the compound, how does the Potency read?
Answer: inconclusive: 28.2 µM [activator, single point]

Question: For `CCc1cccc(CC)c1NC(=S)Nc1ccccc1`, which “growth rescue (activation)” value is on record?
Answer: inactive: 5.28%

Question: For `COc1cccc(-c2nnc(SCc3cc(C)ccc3C)n2Cc2ccco2)c1`, which Potency is on record?
Answer: inconclusive: 39.8 µM [activator, single point]

Question: For `COc1ccc(-n2c(SCc3ccccc3F)nc3c([nH]c4ccccc43)c2=O)cc1`, which “growth rescue (activation)” value is on record?
Answer: inactive: -14.1%

Question: With `COc1ccc(CCNC(=O)CS(=O)Cc2nc(-c3ccc(C)cc3)oc2C)c(OC)c1` (stereo not drawn) as the compound, how does the Potency read?
Answer: inconclusive: 44.7 µM [activator, single point]

Question: For `O=C(Nc1nnc(-c2ccc(F)cc2)s1)c1ccco1`, which Potency is on record?
Answer: inconclusive: 25.1 µM [activator, partial curve]

Question: With `O=C(CSc1nnc(Nc2ccccc2F)s1)Nc1cccc(S(=O)(=O)N2CCCCC2)c1` as the compound, how does the Potency read?
Answer: inconclusive: 12.6 µM [activator, partial curve, poor fit]

Question: For `O=C(C[C@H]1C(=O)N(CCc2ccccc2)C[C@@H]1Cc1ccccc1)Nc1ccccc1`, which Potency is on record?
Answer: inconclusive: 31.6 µM [activator, single point]

Question: Which Potency does the source give for `COC(=O)c1cc(C(=O)Nc2ccc(S(=O)(=O)NC(C)(C)C)cc2)cc([N+](=O)[O-])c1` here?
Answer: inconclusive: 35.5 µM [activator, partial curve, poor fit]

Question: For `O=C(Nc1c2c(nn1-c1ccc(F)cc1)CS(=O)C2)C12CC3CC(CC(C3)C1)C2` (stereo not drawn), which Potency is on record?
Answer: inconclusive: 50.1 µM [activator, single point]

Question: For `CCC/C=C/c1ccc(CN2C(CC(C)C)C(=O)N(Cc3cn(Cc4ccco4)nn3)CCS2(=O)=O)cc1` (stereo not drawn), which Potency is on record?
Answer: inconclusive: 35.5 µM [activator, single point]

Question: With `CCN(CC)S(=O)(=O)c1ccc(/C=C/C(=O)NC2CCCCC2)cc1` as the compound, how does the “growth rescue (activation)” value read?
Answer: inactive: 17.1%

Question: For `CC(=O)c1ccc(-c2cnc3c(NC=O)cc(-c4ccc(C(=O)NC5CC5)cc4)cn23)cc1`, which Potency is on record?
Answer: inconclusive: 28.2 µM [activator, single point]

Question: For `CCOC(=O)CNC(=O)c1ccc(Cl)s1`, which “growth rescue (activation)” value is on record?
Answer: inactive: -10.2%

Question: For `COC(=O)[C@]1(Cc2ccccc2)N[C@H](c2ccc(-c3ccc(Cl)c(Cl)c3)cc2)[C@@H]2C(=O)N(C)C(=O)[C@@H]21`, which Potency is on record?
Answer: inconclusive: 20 µM [activator, partial curve, poor fit]

Question: Which “growth rescue (activation)” value does the source give for `Cc1ccc(Cn2c(CNC(=O)c3ccccc3Br)nc3cccnc32)cc1` here?
Answer: inactive: 14.8%

Question: With `COc1ccc(OCC(=O)NC2CCCN(Cc3ccc(Cl)cc3)C2)cc1` (stereo not drawn) as the compound, how does the Potency read?
Answer: inconclusive: 11.2 µM [activator, single point]

Question: With `C[C@H](CO)N1C[C@H](C)[C@H](CN(C)S(=O)(=O)c2cccc(F)c2)Oc2cc(Br)ccc2S1(=O)=O` as the compound, how does the “growth rescue (activation)” value read?
Answer: inactive: 28.9%

Question: Which Potency does the source give for `CSCCC(NC(=O)COc1ccccc1)C(=O)N(C)Cc1cccc(F)c1` (stereo not drawn) here?
Answer: inconclusive: 10 µM [activator, partial curve]

Question: Which Potency does the source give for `O=C1NC[C@H](CCCCN2C[C@@H](Cc3ccccc3)N(CC3CCCCC3)C(=O)C2=O)N(CCC2CCCCC2)C1=O` here?
Answer: inconclusive: 12.6 µM [activator, partial curve, poor fit]

Question: For `CC1CN(Cc2nc3c(c(=O)n(C)c(=O)n3C)n2CCCO)CC(C)O1` (stereo not drawn), which Potency is on record?
Answer: inconclusive: 3.55 µM [activator, partial curve, poor fit]

Question: With `Fc1ccc(CNc2nc(-c3ccccc3)cc(C(F)(F)F)n2)cc1` as the compound, how does the “growth rescue (activation)” value read?
Answer: inactive: -3.72%

Question: With `COc1ccc(NS(=O)(=O)c2ccc3[nH]c4c(c3c2)CCCCCC4)cc1` as the compound, how does the “growth rescue (activation)” value read?
Answer: inactive: 19.3%

Question: For `CCC(C(=O)Nc1ccc(C(C)=O)cc1)n1c(C)c2cnn(-c3ccccc3)c(=O)c2c1C` (stereo not drawn), which Potency is on record?
Answer: inconclusive: 28.2 µM [activator, single point]

Question: With `CC1=NC(=O)C(N=Nc2ccccc2C(=O)O)N1c1ccccc1` (stereo not drawn) as the compound, how does the Potency read?
Answer: inconclusive: 22.4 µM [activator, partial curve, poor fit]

Question: For `Cc1c(CCOC(=O)C23CC4CC(CC(C)(C4)C2)C3)sc[n+]1Cc1ccccc1`, which growth rescue (activation) is on record?
Answer: inconclusive: 70.3% [activator]

Question: Which “growth rescue (activation)” value does the source give for `COc1ccc(-c2coc3c(C(=O)Nc4cc(OC)c(OC)c(OC)c4)cccc23)c(C)c1` here?
Answer: inactive: 1.82%

Question: With `CSc1ncccc1C(=O)OCn1nnc2ccccc2c1=O` as the compound, how does the Potency read?
Answer: inconclusive: 20 µM [activator, partial curve, poor fit]

Question: With `COCCCNC(=O)Cc1coc2ccc3ccccc3c12` as the compound, how does the Potency read?
Answer: inconclusive: 25.1 µM [activator, single point]

Question: For `Cc1c(CCC(=O)N2CCC[C@H]2C(=O)O)c(=O)oc2c(C)c3oc4c(c3cc12)CCCC4`, which Potency is on record?
Answer: inconclusive: 50.1 µM [activator, single point]

Question: With `COCCNc1ncnc2c1c(-c1ccccc1)cn2-c1cccc(Cl)c1` as the compound, how does the Potency read?
Answer: inconclusive: 50.1 µM [activator, single point]

Question: For `O=C(CSc1nc2ccccc2[nH]1)NC1CCCc2ccccc21` (stereo not drawn), which Potency is on record?
Answer: inconclusive: 5.01 µM [activator, full curve, poor fit]

Question: For `O=C(COc1cccc(C(F)(F)F)c1)N1CCN(c2ccc(O)cc2)CC1`, which Potency is on record?
Answer: inconclusive: 44.7 µM [activator, single point]

Question: With `Cc1ccc(-c2csc(N(CC3CCCO3)C(=O)c3ccco3)n2)cc1` (stereo not drawn) as the compound, how does the Potency read?
Answer: inconclusive: 28.2 µM [activator, single point]

Question: With `COc1cccc(NC(=S)N/N=C2/CCCCc3ccccc32)c1` as the compound, how does the Potency read?
Answer: inconclusive: 20 µM [activator, partial curve, poor fit]

Question: Which Potency does the source give for `COC(=O)[C@]12C[C@H](CC(=O)NCC34CC5CC(CC(C5)C3)C4)C(=O)N(CCc3ccc(OC)c(OC)c3)C1=C[C@H](C1CCCC1)O[C@@H]2C` here?
Answer: inconclusive: 15.8 µM [activator, partial curve, poor fit]

Question: For `C[C@@H]1NC(=O)c2cc([N+](=O)[O-])cc(I)c2OCC[C@@H](C(=O)NC(CC(=O)O)C(N)=O)NC(=O)[C@H](CC(N)=O)NC1=O` (stereo partly drawn) (AN[hSer(Ph(2-I,4-NO2,6-CO))][ξD]-NH2; lactam N-3), which Potency is on record?
Answer: inconclusive: 22.4 µM [activator, partial curve, poor fit]

Question: Which “growth rescue (activation)” value does the source give for `O=C(c1ccc2c(=O)n(CCc3ccccc3)c(=O)[nH]c2c1)N1CCN(c2ccc(Cl)cc2)CC1` here?
Answer: inactive: -13.3%
